The supplement of paper PMC10498489
Out of some 2,300 compounds screened, about 330 (14%) showed activity.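 The calls were made as follows: active = median modified Z-score above 1.96; inactive = 1.96 or below.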 The list shows a part of the results, in another mix than the full data.

Tested on: HepG2 Srxn1-GFP reporter cells (+30 nM CDDO-Me)
Assay: Srxn1-GFP intensity median modified Z-score relative to plate median; higher = stronger NRF2 / oxidative stress reporter activation, active = hit call of the paper
Settings: 10 µM; exposure time: 24h
Method in brief: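 The modified Z-score of GFP intensity was computed per plate, and the median over replicates is reported. HepG2 Srxn1-GFP BAC reporter cells in three replicate plates were treated for 24 h with compound at 10 μM plus an NRF2 activator at 30 nM (≤0.1% DMSO). Per-cell cytoplasmic GFP came from confocal images, excluding those with under 100 cells, and scaling used 1.4826 × median absolute deviation.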

Srxn1-GFP intensity median modified Z-score, inactive:
C[C@@H]1CC2C3CC(F)=C4CC(=O)C=C[C@]4(C)[C@@]3(F)[C@@H](O)C[C@]2(C)[C@@]1(O)C(=O)CO (some centres not stated) [euspeclibcmpd415] -0.177
CC(Cc1cccc(C(F)(F)F)c1)NCCOC(=O)c1ccccc1 (configuration not stated) [euspeclibcmpd1047] -0.246
CC1(C)[C@@H]2CC[C@]1(C)C(=O)C2 [euspeclibcmpd42] -0.12
O=C(Oc1cc(O)cc2c1CC(OC(=O)c1cc(O)c(O)c(O)c1)C(c1cc(O)c(O)c(O)c1)O2)c1cc(O)c(O)c(O)c1 (configuration not stated) [euspeclibcmpd1839] -0.336
Cc1nccnc1N1CCCCC1 [euspeclibcmpd921] -0.584
CC12CCC3C(CC3(C)C)C(C)(CCC1=O)O2 (configuration not stated) [euspeclibcmpd2010] -0.5
O=C(O)CCCCCCCC(=O)O [euspeclibcmpd326] 0.617
CC1=C2CC(=O)C=C[C@]2(C)C2C(C1)C1CC[C@](O)(C(=O)COC(=O)CCC(=O)O)[C@@]1(C)C[C@@H]2O (some centres not stated) [euspeclibcmpd2224] -0.845
CCCCN(CCCC)CCCOC(=O)c1ccc(N)cc1 [euspeclibcmpd632] -0.742
FC(F)(F)C(Cl)Br (configuration not stated) [euspeclibcmpd783] -0.331
CC(=O)OCC(=O)[C@@]1(O)CC[C@H]2[C@@H]3CCC4=CC(=O)CC[C@]4(C)[C@H]3[C@@H](O)C[C@@]21C 0.378
CCCCCCCCCCCCCCCC(=O)OC/C=C(C)/C=C/C=C(C)/C=C/C1=C(C)CCCC1(C)C [euspeclibcmpd856] 0.0199
C=CC(N)CCC(=O)O (configuration not stated) [euspeclibcmpd2202] 1.14
NS(=O)(=O)c1cc(C2(O)NC(=O)c3ccccc32)ccc1Cl (configuration not stated) [euspeclibcmpd62] -0.0714
CC[N+](C)(C)c1cccc(O)c1 [euspeclibcmpd953] 0.119
NCc1ccccc1CC(=O)NC1C(=O)N2C(C(=O)O)=C(CSc3nnnn3CC(=O)O)CSC12 (configuration not stated) [euspeclibcmpd506] -0.382
OC(Cn1cncn1)(Cn1cncn1)c1ccc(F)cc1F [euspeclibcmpd643] -0.214
Cc1cn[nH]c1 [euspeclibcmpd2215] -0.461
Cc1cn[nH]c1 [euspeclibcmpd2196] 1.06
CC[N+](C)(CC)CCOC(=O)C(O)(c1ccccc1)C1CCCCC1 (configuration not stated) [euspeclibcmpd1223] -0.312
CC1(C)OC(=O)C(OCC2CC2)=C1c1ccc(S(C)(=O)=O)cc1 [euspeclibcmpd752] -0.638
CCCCOCCOCCOCc1cc2c(cc1CCC)OCO2 [euspeclibcmpd1169] 0.075
CC(O)CN1CCN(CC(=O)O)CCN(CC(=O)O)CCN(CC(=O)O)CC1 (configuration not stated) [euspeclibcmpd2179] -0.14
Cc1[nH]ccc2c1[nH]c1cc(=O)ccc12 [euspeclibcmpd2030] -0.813
CN(C)CCCN1c2ccccc2Sc2ccc(C(F)(F)F)cc21 [euspeclibcmpd612] -1.21
CC(=O)OC1=C2C(C)C(O)CC(O)(C(OC(=O)c3ccccc3)C3C4(OC(C)=O)COC4CC(O)C3(C)C1=O)C2(C)C (configuration not stated) [euspeclibcmpd1937] 0.285
NC(=O)CCC(N)C(=O)O (configuration not stated) [euspeclibcmpd1404] -0.533
CCCCCCCCCCCCCCCCCCOCC(O)CO (configuration not stated) [euspeclibcmpd1378] -0.274
C[N+]1(C)CCC(OC(=O)C(O)(c2ccccc2)C2CCCC2)C1 (configuration not stated) [euspeclibcmpd863] -0.394
Oc1ccc2ccccc2c1 [euspeclibcmpd1176] 1.48
COC(=O)c1cc(O)c(=O)c2c(O)c(O)ccc2c1 [euspeclibcmpd2277] -0.815
CC(C)CC(N)=O [euspeclibcmpd931] -0.219
CN1CCN(C2=Nc3ccccc3Oc3ccc(Cl)cc32)CC1 [euspeclibcmpd702] 0.0816
COc1c2occc2cc2ccc(=O)oc12 [euspeclibcmpd192] -0.198
CC(=O)Oc1ccc2c(c1OC(C)=O)OCC1(O)Cc3c(cc(OC(C)=O)c(OC(C)=O)c3OC(C)=O)C21 (configuration not stated) [euspeclibcmpd1391] -0.46
C[C@H](CCC(=O)O)[C@H]1CCC2C3C(=O)CC4CC(=O)CC[C@]4(C)C3CC(=O)[C@@]21C (some centres not stated) [euspeclibcmpd2057] -0.197
CN1C2CCC1CC(OC(=O)c1c[nH]c3ccccc13)C2 (configuration not stated) [euspeclibcmpd1092] -0.176
O=C(O)c1cn(-c2ccc(F)cc2)c2cc(N3CCNCC3)c(F)cc2c1=O [euspeclibcmpd743] -0.431

Srxn1-GFP intensity median modified Z-score, active:
N=c1[nH]c(=S)c2ncn(C3O[C@H](CO)[C@@H](O)[C@H]3O)c2[nH]1 (some centres not stated) [euspeclibcmpd1778] 41.1
CN1CCC(=C2c3ccccc3C=Cc3ccccc32)CC1 [euspeclibcmpd890] 7.54
C=C(C)c1cc(O)c(C)cc1O [euspeclibcmpd1354] 6.7
O=C(O)CN1C(=O)c2cccc3cccc(c23)C1=O [euspeclibcmpd433] 2.2
CCN(CC)CCOC(=O)C1(C2CCCCC2)CCCCC1 [euspeclibcmpd90] 2.86
O=c1cc(-c2ccccc2)oc2c(O)c(O)ccc12 [euspeclibcmpd2237] 4.14
CC1=C(CCC(=O)O)c2cc3nc(cc4[nH]c(cc5[nH]c(cc1n2)c(C)c5C(C)O)c(C)c4C(C)O)C(C)=C3CCC(=O)O (configuration not stated) [euspeclibcmpd1687] 8.82
CCCCCc1c2c(cc(O)c1C(=O)O)OC(=O)c1c(cc(OC)cc1C(=O)CCCC)O2 [euspeclibcmpd1731] 4.46
Clc1ccc(CCC(Cn2ccnc2)Sc2c(Cl)cccc2Cl)cc1 (configuration not stated) [euspeclibcmpd650] 26.7
